Experimental data reported in PubChem BioAssay AID360 (National Center for Advancing Translational Sciences (NCATS), 2006).
The campaign covered roughly 48,000 compounds. About 550 (1.1%) were called active. About 4% were inconclusive and are not listed. No stated cut-off is given here; in the data, active means potency below about 15 µM; inconclusive means mostly about 16 µM to 33 µM; inactive means weaker than that. The list shows a part of the results.

Each compound was assayed against Lysosomal acid glucosylceramidase (Homo sapiens) (UniProt P04062) (assay: Glucocerebrosidase). Details: purified enzyme, resorufin glucoside fluorescence (screen aimed at inhibitors), 20 min.
Chain of UniProt P04062 (P04062 whole entry, looked up): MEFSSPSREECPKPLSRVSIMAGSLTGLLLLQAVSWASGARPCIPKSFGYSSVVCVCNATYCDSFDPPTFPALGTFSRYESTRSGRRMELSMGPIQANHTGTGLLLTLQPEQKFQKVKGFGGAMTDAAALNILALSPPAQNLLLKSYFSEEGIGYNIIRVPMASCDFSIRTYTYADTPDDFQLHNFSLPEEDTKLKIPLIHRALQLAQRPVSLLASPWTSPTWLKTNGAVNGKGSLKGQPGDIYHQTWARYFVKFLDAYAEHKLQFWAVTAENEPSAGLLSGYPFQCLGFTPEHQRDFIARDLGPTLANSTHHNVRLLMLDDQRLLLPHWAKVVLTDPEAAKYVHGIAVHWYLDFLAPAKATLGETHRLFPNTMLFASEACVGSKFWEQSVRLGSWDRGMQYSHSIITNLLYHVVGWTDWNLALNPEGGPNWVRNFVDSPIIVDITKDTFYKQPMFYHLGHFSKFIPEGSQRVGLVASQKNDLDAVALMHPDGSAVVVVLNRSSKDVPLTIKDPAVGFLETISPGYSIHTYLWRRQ
Outline: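 Compounds titrated against 0.2 nM normal enzyme, 30 uM resorufin beta-D-glucopyranoside substrate, citrate/phosphate buffer with taurocholate and tween-20, pH 5.9. Reaction ran 20 min at room temperature; fluorescence (Ex 548/Em 600) gave AC50.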
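Further: the screen sought inhibitors.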
Potency means the concentration at half of the fitted maximal effect.

Potency, inactive:
CCCn1cc(C(CC(=O)O)C(=O)O)c2ccccc21 (stereo unspecified) > 76.9 µM
O=C(NCCCN1CCOCC1)C1(c2ccccc2)CCCC1
O=S(=O)(c1ccc2c(c1)OCCO2)N1CCN(c2cccc(Cl)c2)CC1 > 76.9 µM
Cc1cc2ccccc2c(=O)n1CC(=O)NCC(=O)N1CCN(c2cccc(Cl)c2)CC1 > 76.9 µM
Cn1nccc1C(=O)NCCN1C(=O)OC(C)(C)C1(C)O (stereo unspecified) > 76.9 µM
COC(=O)c1sc(=S)n(-c2ccccc2)c1N > 76.9 µM
Cc1sc(NC(=O)c2ccco2)nc1-c1ccc2c(c1)CC(C)N2C(=O)C1CC1 (stereo unspecified) > 76.9 µM
COc1ccccc1Cn1c(=O)c2ccccc2n2c(SCC(=O)N3CCCCC3)nnc12 > 76.9 µM
CCCc1cc(=O)[nH]c(SCC(=O)N(CC(C)C)C2CCS(=O)(=O)C2)n1 (stereo unspecified) > 76.9 µM
Cc1ccc(S(=O)(=O)NC(CC(=O)N2CCc3ccccc32)c2ccco2)cc1 (stereo unspecified) > 76.9 µM
CCn1c(-c2ccc(N(C)C)cc2)nc2ccccc21 > 76.9 µM
COc1ccc(-c2nnc3ccc(SC(C(C)=O)C(C)=O)nn23)cc1OC > 76.9 µM
COC(=O)c1cc(=O)nc2sc(-c3cccs3)nn12 > 76.9 µM
CCn1c(=O)cc(OCC(=O)NCCCN2CCC(C)CC2)c2ccccc21 > 76.9 µM
COC(=O)COc1ccc(S(=O)(=O)Nc2ccc(NC(C)=O)cc2)cc1 > 76.9 µM
CCCCCCNC(=O)CC(NS(=O)(=O)c1ccc(NC(C)=O)cc1)C(C)C (stereo unspecified) > 76.9 µM
COc1ccc(OC(C)C(=O)N2CCc3ccccc3C2)cc1 (stereo unspecified) > 76.9 µM
CC1CCN(S(=O)(=O)c2ccc(NC(=O)Cn3nnc(-c4ccccc4F)n3)cc2)CC1 > 76.9 µM
O=C(NCc1ccco1)C1CC(=O)N(c2ccc(F)cc2)C1 (stereo unspecified) > 76.9 µM
O=C(CSc1nnnn1C1CCCC1)c1ccc2c(c1)OCCO2 > 76.9 µM
O=C(CCCC(=O)N(CC(=O)NC1CCCCC1)CC1CCCO1)Nc1ccccn1 (stereo unspecified) > 76.9 µM
O=c1nc(N2CCCC2)nc(Nc2ccccc2)[nH]1 > 76.9 µM
Cc1cccc(C)c1NC1=NC(C)(C)N=C(N)N1 > 76.9 µM
CC(=O)c1cccc(-n2nnnc2SCC(=O)Nc2ccccc2N2CCCCC2)c1 > 76.9 µM
O=C(Oc1ccc(-c2nnco2)cc1)N1CCCCC1 > 76.9 µM
O=C(c1c(Cl)cccc1Cl)N1CCCCCC1 > 76.9 µM
CN1CCN(C(=O)C2C3C=CC(C3)C2C(=O)O)CC1 (stereo unspecified) > 76.9 µM
O=S(=O)(NC1CCCC1)c1ccccc1Cl > 76.9 µM
CCCC(=O)Nc1nn(C)c2nc3c(C)cccc3cc12 > 76.9 µM
CCC(C)C(=O)Nc1cc(OC)c(OC)cc1C(=O)O (stereo unspecified) > 76.9 µM
CCC(C)[C@H](NC(=O)NCCCN1CCOCC1)C(=O)OC (stereo partly specified) > 76.9 µM
Cc1ccccc1-n1nc(C(=O)O)c(C)c(C#N)c1=O > 76.9 µM
O=S(=O)(NC1CCCCCC1)c1cccc2cccnc12 > 76.9 µM
Cc1c(C(=O)NCCc2ccccc2)oc2ccc(S(=O)(=O)N3CCOCC3)cc12 > 76.9 µM
CCOC(=O)/C=C1\SCC(=O)N1CC(=O)NC1CCCCC1 > 76.9 µM
O=C(NC(O)C(=O)c1cccs1)c1cccnc1 (stereo unspecified) > 76.9 µM
COc1ccc(N2CC(C(=O)OCC(=O)c3cccc(OC)c3)CC2=O)cc1 (stereo unspecified) > 76.9 µM
O=C(Cn1cnc2c(nnn2Cc2ccc(F)cc2)c1=O)OCc1ccccc1 > 76.9 µM
CC(=O)c1cccc(NC(=O)c2nccnc2C(=O)O)c1 > 76.9 µM
CCSc1nc(N)c2c3c(sc2n1)CN(C)CC3 > 76.9 µM
Cc1ccc(C(=O)COC(=O)CCc2nc3ccccc3[nH]c2=O)cc1C > 76.9 µM
OC1(c2ccc(Br)cc2)CCNCC1 > 76.9 µM
Cc1nn(CC(=O)NCC2CCCO2)c(=O)c2ccccc12 (stereo unspecified) > 76.9 µM
COc1ccc2nc(SCC(=O)NC(C)(C)C)[nH]c2c1 > 76.9 µM
COc1ccc(OC)c(C2C(C(C)=O)=C(O)C(=O)N2c2ccc(O)cc2)c1 (stereo unspecified) > 76.9 µM
Cn1c(=O)c2c(nc(CN3CCCCC3)n2CCc2ccccc2)n(C)c1=O > 76.9 µM
CC1CN(CC(O)COc2ccccc2C(C)(C)C)CC(C)O1 (stereo unspecified)
CCc1ccc(CCC(=O)Nc2ccc(C)cc2C)o1 > 76.9 µM
COc1ccc(N(C(=O)Nc2ccc(Cl)cc2)C2=NCCC2)cc1 > 76.9 µM
CC(C)(C)OC(=O)N[C@@H](Cc1ccccc1)c1nnc(SCC(=O)O)o1 > 76.9 µM
COc1cccc(N2CCN(CC(=O)Nc3nc4c(s3)CC(C)CC4)CC2)c1 (stereo unspecified) > 76.9 µM
COc1ccc(C(=O)Nn2c(SCC(=O)NCc3ccco3)nc3ccccc3c2=O)cc1 > 76.9 µM
CCOC(=O)NC1(NCc2ccccc2)Oc2ccccc2O1 > 76.9 µM
O=C(CN1C(=O)NC2(CCOc3ccccc32)C1=O)Nc1ccc2c(c1)OCCO2 (stereo unspecified) > 76.9 µM
COCCN(C(=O)CN1CCc2ccccc2C1)c1c(N)n(Cc2ccccc2)c(=O)[nH]c1=O > 76.9 µM
CC(=O)Nc1ccc(S(=O)(=O)NCC(C)NS(=O)(=O)c2ccc(NC(C)=O)cc2)cc1 (stereo unspecified) > 76.9 µM
O=C(NCc1ccccn1)C1CCCN(S(=O)(=O)c2ccc(Br)cc2)C1 (stereo unspecified) > 76.9 µM
COc1ccc(CCNC(=O)c2cnn(-c3ccc(C)c(C)c3)c2NC(=O)c2ccco2)cc1OC > 76.9 µM
COc1ccccc1-n1cnnc1SCC(=O)Nc1ncc(Cl)cc1Cl > 76.9 µM
COCCNC(=O)CSc1nc2ccc(N3CCOCC3)cc2c(=O)n1CCc1ccccc1 > 76.9 µM
O=C(Cc1ccccn1)Nc1ccccc1 > 76.9 µM
CSCCC(NC(=O)c1ccccc1)C(=O)NCc1ccco1 (stereo unspecified) > 76.9 µM
CCOc1ccc2nc(NCCNC(=O)CC)c(C#N)cc2c1 > 76.9 µM
CCCn1nnc(NC(=O)c2cccc(OCC)c2)n1 > 76.9 µM
CC(Oc1cccc(Cl)c1)C(=O)Nc1cc(=O)n(C)c(=O)n1C (stereo unspecified) > 76.9 µM
COc1ccccc1N1CCN(CCCNC(=O)Nc2ccccc2)CC1 > 76.9 µM
CC(=O)N(C)c1ccc(NC(=O)c2ccccc2C(=O)O)cc1 > 76.9 µM
Cc1nnc(SCCCn2c(N3CCN(c4ccccc4)CC3)nc3c2c(=O)[nH]c(=O)n3C)s1 > 76.9 µM
Nc1nc(-c2ccc(Br)cc2)cs1 > 76.9 µM
C=C(C)COc1ccc(-c2n[nH]c(C)c2-c2ccccc2OC)c(O)c1 > 76.9 µM
Cc1ccc(CCN2CC(C(=O)NCc3ccco3)CC2=O)cc1 (stereo unspecified) > 76.9 µM
O=C(Nc1n[nH]c(C2CCCCC2)n1)C1CCCCC1 > 76.9 µM
O=C1CC(c2ccccc2)CC2=C1CN(C1CCCCC1)CN2 (stereo unspecified) > 76.9 µM
Cc1ccc(OCC(O)Cn2c(NCCc3ccccc3)nc3c2c(=O)[nH]c(=O)n3C)cc1 (stereo unspecified) > 76.9 µM
CN(Cc1ccncc1)C1CC(=O)N(c2ccc(Cl)cc2)C1=O (stereo unspecified) > 76.9 µM
COc1ccc(C(=O)N2CCN(c3cccc(Cl)c3)CC2)c(OC)c1 > 76.9 µM
Cn1c(NCc2ccco2)nc2c1c(=O)n(Cc1ccc(Cl)cc1)c(=O)n2C > 76.9 µM
O=C(CCc1ccc(S(=O)(=O)N2CCOCC2)cc1)NCCc1ccccn1 > 76.9 µM
Cc1cc(O)ccc1Nc1nc(-c2sc(N)nc2C)cs1 > 76.9 µM
CC1(C)CC(=O)c2c(nn(-c3ccccc3)c2N)C1 > 76.9 µM
[O-][N+]1=C(c2cccs2)CN(O)C1 > 76.9 µM
COc1ccc(N2C(=O)CC(NC34CC5CC(CC(C5)C3)C4)C2=O)c(OC)c1 (stereo unspecified) > 76.9 µM
COCCCn1c(=N)c(C(=O)NCc2ccc3c(c2)OCO3)cc2c(=O)n3cccc(C)c3nc21 > 76.9 µM
Cc1cc(C)cc(Nc2ncc3c(n2)CCCC3=O)c1 > 76.9 µM
O=C1COc2cccnc2N1 > 76.9 µM
Cc1cc(-n2c(SCCC#N)nnc2-c2cccnc2)ccc1Cl > 76.9 µM
COc1cccc(Oc2cn[nH]c2-c2ccc(O)cc2O)c1 > 76.9 µM
COc1ccc(CNC(=O)C2CCN(S(=O)(=O)c3ccc(-c4nn[nH]n4)cc3)CC2)cc1 > 76.9 µM
c1ccc(OCc2nnc3sc(-c4cccs4)nn23)cc1 > 76.9 µM
Cc1cc(NC(=O)CSc2nnc(CNc3cccc(C(F)(F)F)c3)n2Cc2ccco2)no1 > 76.9 µM
CCc1nnc(NC(=O)c2cc3ccccc3oc2=O)s1 > 76.9 µM
